Laboratory results taken from PubChem BioAssay AID1963576 (National Center for Advancing Translational Sciences (NCATS), 2024).
Among all 46,000 compounds or so, about 60 (0.1%) were called active. Roughly 3% stayed inconclusive and do not appear here. The call rests on the fitted dose curve; in most records, active means well fitted inhibition curve with a large enough effect; inconclusive means small, poorly fitted or top-dose-only effect; inactive means no such curve, though single readings can be large or run the other way. The list shows a part of the results.

Test: Primary qHTS assay for Inhibitors of ovarian cancer metastasis using an organotypic tumor microenvironment (TME) model. Further: nearly all actives have a fitted effect of over 65% in size.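 On activity change, negative = inhibition: plate controls were DMSO wells for no effect and tomatine positive control wells for full effect.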
Conditions: SKOV3ip1-GFP adhesion/invasion on 3D omental model, fluorescence; series mostly up to 45.8 µM; activity change, negative = inhibition: at the top concentration
Method in brief: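 qHTS, 4-pt dose (0.36-46 umol/L); SKOV3ip1-GFP, 1,200 cells/well, no FBS; primary omental fibroblast/mesothelial co-culture 48 h pre-grown; 2 h RT + 16 h 37 C; PBS wash, 4% PFA; GFP count 488/509 nm.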

Structure (SMILES)	activity change, negative = inhibition	outcome
COc1ccc(NC(=O)CCn2nc(-c3ccccc3OC)c3c(C)cc(C)nc32)cc1	inactive: -13.1%	
COc1cc(CN(C(=O)c2cccc(Cl)c2)c2ccccn2)cc(OC)c1OC	inactive: -0.138%	
CCC(C(=O)N1CCN(c2ccccc2F)CC1)n1nc(C)c2sc3ccccc3c2c1=O (stereo not given)	inactive: 2.81%	
O=C(CCS(=O)(=O)c1cc2c(cc1Cl)NC(=O)CO2)NCCc1ccc(Cl)cc1		inactive
CCCc1nn2c(=O)cc(COc3ccc(/C=C(\C#N)C(=O)Nc4ccc(F)cc4)cc3)nc2s1		inactive
CCN(CC)C(=O)Cn1c(SCCOc2ccc(Cl)cc2)nc2ccccc21	inactive: 4.46%	
CCCCN(C)C(=O)C1CCC(CNS(=O)(=O)c2ccc3c(c2)CC(C)N3C(C)=O)CC1 (stereo not given)	inactive: -10.6%	
COc1ccc(NC(=O)CSc2nc(-c3ccco3)cc(C(F)(F)F)n2)c(OC)c1	inactive: -2.83%	
COc1ccc(NC(=O)c2ccc(CNS(=O)(=O)c3ccc4c(c3)C(C)(C)C(=O)N4C)cc2)cc1	inactive: -28.7%	
CC(=O)N1c2ccccc2C(=O)C1N1CCN(c2ccc(F)cc2)CC1 (stereo not given)	inactive: -1.09%	
O=C1CC(c2nc(-c3cccc(Cl)c3)no2)CN1c1ccc2c(c1)OCCO2 (stereo not given)	inactive: 9.95%	
O=C(NCCc1csc(-c2cccc(F)c2)n1)c1ccc(Br)o1		inactive
Cc1ccc(Cl)cc1NCc1nnc2n1CCCCC2	inactive: 2.75%	
CC(O)(C#Cc1ccc2c(c1)N(c1nc(N)ncc1Cl)CC2)c1nccs1 (stereo not given)	inactive: 15.9%	
CC(C)OCCCNC(=O)CN1C(=O)CSc2ccc(S(=O)(=O)N3CCCCC3)cc21	inactive: 1.91%	
Cc1c(C)n(Cc2ccccc2)c2ccc(C(=O)NCCc3ccccc3Cl)cc12	inactive: 5.53%	
COc1cccc(CNC(=O)C2CCCN(c3ncnc4onc(-c5ccc(F)cc5)c34)C2)c1 (stereo not given)	inactive: 6.74%	
CC(C)Oc1ccc(CNC(=O)CCn2c(=O)c3cccn3c3ccc(F)cc32)cc1	inactive: 21.6%	
O=C(Nc1ccc2c(c1)N(C1CCCC1)C(=O)c1ccccc1S2)c1cccc(F)c1	inactive: 4.44%	
COc1cccc(-n2c(=O)c3c(C)c(C(=O)N(C)C)sc3n(CC(=O)Nc3ccc(C)cc3Cl)c2=O)c1	inactive: 31.5%	

Structure (SMILES)	activity change, negative = inhibition	outcome
CCN(C(=O)Cn1c(=O)oc2cc(S(=O)(=O)N3CCCC3)ccc21)c1cccc(C)c1	inactive: 3.85%	
CCOc1ccccc1CNC(=O)CCc1cn(Cc2ccc(Cl)cc2)c2ccccc12	inactive: 0.741%	
Cc1ccc(-n2nnnc2C2CCN(S(=O)(=O)c3ccc(OC(F)(F)F)cc3)CC2)cc1	inactive: 7.27%	
Cc1n[nH]c(C)c1S(=O)(=O)N(CC(=O)NCc1ccccc1Cl)c1ccc(C(C)C)cc1	inactive: -4.74%	
COc1ccc(C(=O)Nc2ccc(OCc3cc(=O)n4ccccc4n3)cc2)cc1	inactive: -4.61%	
N#C/C(=C\c1ccc(-c2ccc(F)cc2F)o1)c1nc2ccccc2[nH]1	inactive: -3.55%	
COc1ccc(CNC(=O)c2ccc3[nH]c(C)c(C)c3c2)c(OC)c1	inactive: 9.08%	
Cc1ccc(NC(=O)CN2C(=O)COc3ccc(S(=O)(=O)N4CCCCCC4)cc32)cc1C		inactive
COCCCNC(=O)CSc1nc2ccccc2c(=O)n1Cc1ccco1	inactive: -1.53%	
CCOc1ccc(CCNC(=O)c2c(C)oc3ncnc(N4CCOCC4)c23)cc1	inactive: 2.04%	
Cc1cc(C)cc(NC(=O)CN(C)S(=O)(=O)c2ccc3[nH]c4c(c3c2)CCCC4)c1	inactive: -0.148%	
COc1ccc(-c2onc(C)c2C)cc1S(=O)(=O)NCc1ccc(Br)cc1	inactive: 0.993%	
Cc1ccc(C)c(N2CCN(C(=O)CCS(=O)(=O)c3ccc4c(c3)CC(=O)N4C)CC2)c1	inactive: 89.3%	
CCc1nnc2c(NCCc3ccc(OC)c(OC)c3)nc3ccccc3n12	inactive: -4.47%	
CCc1ccc(NC(=O)CC2C(=O)N(c3ccc(Cl)cc3)C(=O)N2Cc2cccs2)cc1 (stereo not given)	inactive: -7.88%	
Cc1ccc(OCC(=O)N(Cc2ccco2)C2CCS(=O)(=O)C2)cc1 (stereo not given)		inactive
Cc1ccc(S(=O)(=O)NCC2CCC(C(=O)N(C)Cc3ccccc3)CC2)cc1 (stereo not given)	inactive: 17.5%	
CC(Oc1ccc(F)cc1)C(=O)Nc1cc(-c2ccc(F)c(F)c2)no1 (stereo not given)	inactive: 10.3%	
COc1ccc(-c2nnc(SCC(=O)Nc3ccc(C(C)=O)cc3)nc2-c2ccc(OC)cc2)cc1	inactive: -9.97%	
CCOc1ccc(NS(=O)(=O)c2ccc3c(c2)CCN3C(C)=O)cc1		inactive

Structure (SMILES)	activity change, negative = inhibition	outcome
COc1ccc(OC)c(S(=O)(=O)Nc2cc3c(C(C)=O)c(C)oc3c3ccccc23)c1	inactive: -9.86%	
COC(=O)c1c(NC(=O)COc2cc(C)c(Cl)c(C)c2)sc2c1CCCC2	inactive: 3.62%	
COc1cccc(C2CC(=O)Nc3c2c(=O)n(C)c2ncnn32)c1OC (stereo not given)		inactive
COc1ccc(S(=O)(=O)N(CC(=O)N(C)Cc2ccccc2)c2ccc(Cl)cc2)cc1	inactive: 47%	
Cc1ccc(OCC(=O)Nc2ccc(Cl)c(-c3nc4ccccc4[nH]3)c2)cc1C		inactive
CCn1cc2nc(SCc3ccc(C)cc3)n(CCc3ccccc3)c(=O)c2n1	inactive: 68%	
CCC1CN(C(=O)N2CCC(C(=O)NCCC3=CCCCC3)CC2)c2cc(C)ccc2O1 (stereo not given)		inactive
Cc1cccc(OCC(=O)Nc2ccc(-c3nc4cc(C)ccc4o3)c(O)c2)c1	inactive: -7.28%	
COc1ccc(NC(=O)CSc2nnc(NC(=O)Nc3ccccc3)s2)c(OC)c1		inactive
CC1CCCN(c2cc3c(cc2F)c(=O)c(S(=O)(=O)c2cccc(Cl)c2)cn3C)C1 (stereo not given)	inactive: -0.826%	
COc1ccc(Cn2c(=O)[nH]c3cc(C(=O)N4CCN(c5cccc(OC)c5)CC4)ccc3c2=O)cc1		inactive
O=C(NC1CCCCC1)c1c[nH]c2ccc(S(=O)(=O)Nc3ccccc3F)cc2c1=O	inactive: 12%	
CCOC(=O)c1ccc(NC(=O)c2c(NCc3sccc3C)sc3c2CCCCC3)cc1	inactive: 1.06%	
CC(C)(C)c1ccc(C(=O)NC(Cc2c[nH]c3ccccc23)C(=O)OCC(=O)c2ccccc2)cc1 (stereo not given)	inactive: 18.8%	
Cc1cc(C)cc(NC(=O)N2CCN3CCCCC3C2)c1 (stereo not given)	inactive: 6.83%	
Cn1cc(C(=O)NCc2ccc(Cl)cc2)c(=O)c2cc(S(=O)(=O)N3CCCCCC3)ccc21		inactive
Cc1cc(C)c2c(n1)SCCN2C(=O)Nc1ccc(C(=O)Nc2cc(Cl)ccc2C)cc1		inactive
COc1cccc(C(=O)Nc2cc3cc(OC)ccc3oc2=O)c1	inactive: 3.34%	
COc1ccc(N(CC(=O)NCCc2cccc(C)c2)S(=O)(=O)c2c(C)noc2C)cc1	inactive: -7.77%	
COC(=O)c1cc2sc(Cl)cc2n1Cc1nc(-c2ccc(OC)cc2)oc1C	inactive: 9.83%	
